From PubChem BioAssay AID1347165 (National Center for Advancing Translational Sciences (NCATS), 2019)
The whole screen tested about 220,000 compounds, of which about 5,700 (2.6%) were called active. The inconclusive results got no clear call from the source; some entries with a clear call stand among them for comparison. The call rests on the fitted dose curve; in most records, active means well fitted inhibition curve with a large enough effect; inconclusive means small, poorly fitted or top-dose-only effect; inactive means no such curve, though single readings can be large or run the other way. A potency beside an inconclusive call is a rough fit, not a confirmed value.

These compounds were tested against Lysine-specific demethylase 5B (Homo sapiens) (UniProt Q9UGL1) (assay: Primary screen for KDM5B Histone Demethylases FDH-coupled qHTS). Settings: FDH-coupled NADH fluorescence (FDH is formaldehyde dehydrogenase); series mostly up to 57.7 µM.
Outline: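 qHTS format, multiple compound concentrations. Buffer 50 mM HEPES pH 7.5/0.01% Tween-20; 200 nM KDM5BΔAP final; 10 min compound preincubation; substrate-mix levels 12.5 µM peptide, 25 µM α-KG, 0.25 mM NAD⁺; 30 min RT; ΔRFU.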
Further: nearly all actives have a fitted effect of over 70% in size.
Potency means the concentration at half of the fitted maximal effect; tags describe the fitted curve by direction and shape.

UniProt Q9UGL1, sequence (Q9UGL1 whole entry, looked up): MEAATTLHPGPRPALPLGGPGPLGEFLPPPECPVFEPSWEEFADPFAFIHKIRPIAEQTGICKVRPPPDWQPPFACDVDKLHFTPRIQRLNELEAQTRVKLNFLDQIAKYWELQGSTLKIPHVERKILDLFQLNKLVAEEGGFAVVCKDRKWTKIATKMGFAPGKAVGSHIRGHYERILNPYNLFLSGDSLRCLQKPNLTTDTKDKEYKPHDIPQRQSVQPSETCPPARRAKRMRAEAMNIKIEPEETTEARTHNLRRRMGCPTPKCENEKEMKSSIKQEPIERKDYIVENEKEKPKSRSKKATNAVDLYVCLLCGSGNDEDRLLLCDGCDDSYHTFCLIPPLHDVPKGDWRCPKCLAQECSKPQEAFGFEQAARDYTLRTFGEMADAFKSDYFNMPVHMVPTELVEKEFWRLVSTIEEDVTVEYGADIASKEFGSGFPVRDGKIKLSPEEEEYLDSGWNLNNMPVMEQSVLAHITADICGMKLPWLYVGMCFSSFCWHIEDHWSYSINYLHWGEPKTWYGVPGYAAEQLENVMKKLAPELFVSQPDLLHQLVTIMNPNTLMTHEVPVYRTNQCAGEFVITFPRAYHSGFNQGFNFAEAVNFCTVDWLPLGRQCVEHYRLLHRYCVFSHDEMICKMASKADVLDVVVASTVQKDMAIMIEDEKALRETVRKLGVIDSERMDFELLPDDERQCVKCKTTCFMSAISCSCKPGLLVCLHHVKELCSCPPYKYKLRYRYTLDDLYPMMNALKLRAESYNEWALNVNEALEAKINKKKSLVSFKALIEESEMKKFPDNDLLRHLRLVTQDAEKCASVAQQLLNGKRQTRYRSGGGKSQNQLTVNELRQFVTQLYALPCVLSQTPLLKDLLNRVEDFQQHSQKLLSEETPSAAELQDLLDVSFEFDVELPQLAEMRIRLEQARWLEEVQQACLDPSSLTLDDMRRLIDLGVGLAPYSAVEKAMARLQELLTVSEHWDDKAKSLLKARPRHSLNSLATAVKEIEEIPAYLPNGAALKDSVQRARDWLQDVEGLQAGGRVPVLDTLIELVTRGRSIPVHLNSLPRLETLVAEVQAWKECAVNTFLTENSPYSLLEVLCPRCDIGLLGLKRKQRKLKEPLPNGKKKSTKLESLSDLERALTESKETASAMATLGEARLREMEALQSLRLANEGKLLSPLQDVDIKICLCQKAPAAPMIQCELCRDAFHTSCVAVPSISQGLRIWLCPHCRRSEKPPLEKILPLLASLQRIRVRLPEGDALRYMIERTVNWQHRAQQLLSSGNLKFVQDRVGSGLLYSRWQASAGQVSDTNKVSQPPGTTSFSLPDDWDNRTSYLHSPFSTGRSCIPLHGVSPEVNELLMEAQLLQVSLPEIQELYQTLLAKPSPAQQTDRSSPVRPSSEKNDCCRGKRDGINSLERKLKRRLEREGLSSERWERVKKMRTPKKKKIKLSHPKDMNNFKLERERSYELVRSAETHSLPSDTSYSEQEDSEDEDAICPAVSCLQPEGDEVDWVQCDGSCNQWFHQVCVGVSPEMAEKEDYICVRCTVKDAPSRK

| Compound | Potency |
| --- | --- |
| CCn1ccc2ccc(CN3CCCC(O)(CN4CCCC4)C3)cc21 (centres undefined) | inconclusive: 28.2 µM [inhibitor, partial curve, poor fit] |
| Oc1ccccc1CNC[C@H]1O[C@H](Cc2cc(CN3CCCCC3)on2)CC[C@@H]1O | inactive |
| COC(=O)c1ccccc1NC(=O)c1ccc(N2CCCN(Cc3ccccc3F)C2=O)cc1 | inconclusive: 25.1 µM [inhibitor, single point] |
| COc1ccc(-c2csc(-c3cc4c([nH]c3=O)CC(c3ccco3)CC4=O)n2)cc1F (centres undefined) | inconclusive: 22.4 µM [inhibitor, single point] |
| CCOc1cc(CNC(=O)c2ncoc2-c2cccs2)cc(OCC)c1OCC | inconclusive: 39.8 µM [inhibitor, partial curve, poor fit] |
| CCc1n[nH]c(CC2CCN(C(=O)Nc3ccc4c(c3)OCCO4)CC2)n1 | active: 22.4 µM |
| O=C(NCCN1CCOCC1)c1cccc(Br)c1 | inactive |
| COc1ccc(-c2c(C)c3ccc(O)c(CN4CCN(C)CC4)c3oc2=O)cc1OC | inconclusive: 22.4 µM [inhibitor, partial curve, poor fit] |
| COc1ccc2c(c1)c1c(c(=O)n(-c3cccc(Cl)c3)c(=O)n1C)n2C | inconclusive: 0.562 µM [inhibitor, full curve, poor fit] |
| FC(F)(F)c1cccc(Nc2nc(CN3CCOCC3)nc3sc4c(c23)CCCC4)c1 | inactive |
| Cc1ccsc1CNC(=O)c1cccnc1 | inactive |
| O=C1COCCN1c1cc(-c2cnc3[nH]ccc3c2)cn2cncc12 | inconclusive: 35.5 µM [inhibitor, partial curve, poor fit] |
| O=C1CCN(C(=O)C2CCCC2)CCCC(C(=O)N2CCN(c3ccccn3)CC2)CCN1 (centres undefined) | inconclusive: 31.6 µM [inhibitor, partial curve, poor fit] |
| Cc1ccc(-c2nc3cccc(C)c3nc2-c2ccc(C)cc2)cc1 | inactive |
| COc1ccc(CNC(=O)c2cnc(N3CCCC3)nc2C)cc1 | inconclusive: 17.8 µM [inhibitor, partial curve, poor fit] |
| CN1CCc2c([nH]c3ccccc23)C12CCN(S(=O)(=O)c1cccnc1)CC2 | inactive |
| CC1CCN(S(=O)(=O)c2ccc3c(c2)CCC(=O)N3CC(=O)N2CCC3(CC2)OCCO3)CC1 | inactive |
| CCN(C(=O)CSc1nnc(C)n2c1cc1occc12)c1ccccc1 | inconclusive: 31.6 µM [inhibitor, partial curve, poor fit] |
| Cc1cc(NC(=O)c2nccnc2N)ccc1Br | inactive |
| CCN(Cc1cc(=O)[nH]c2ccccc12)C(=O)c1ccc(C)cc1 | inconclusive: 25.1 µM [inhibitor, partial curve, poor fit] |
| O=C(Nc1nn(Cc2ccccc2)c2cccc(N3CCOCC3)c12)c1ccncc1 | inactive |
| O=C(NCc1nnc2ccc(-c3ccccc3)nn12)c1ccccc1Cl | active: 28.2 µM |

| Compound | Potency |
| --- | --- |
| COc1ccc(Cc2nnc(SCC(=O)Nc3ccc(Br)c(C)c3)n2C)cc1 | inactive |
| Cc1ccc2nc(C)cc(C(=O)NCCN3CCCCC3)c2c1 | inconclusive: 28.2 µM [inhibitor, partial curve, poor fit] |
| O=C(NCc1ccccn1)c1ccc(C(F)(F)F)cc1 | inactive |
| CN1C(=O)C2(CCN(C(=O)c3ccn(C(C)(C)C)c3)CC2)c2ccccc21 | inactive |
| O=C(N/N=C/c1ccc(Cl)s1)c1ccc2ccccc2c1 | inactive |
| CCOc1ccc2c(c1)C(C)=CC(C)(C)N2C(=O)Nc1ccccc1F | inconclusive: 22.4 µM [inhibitor, partial curve, poor fit] |
| CCc1cccc(NC(=O)Nc2cn(C)c(=O)c3ccccc23)c1 | inconclusive: 15.8 µM [inhibitor, partial curve, poor fit] |
| Cc1ccc(C(=O)COC(=O)c2cc(-c3cccs3)nc3ccccc23)cc1 | inconclusive: 17.8 µM [inhibitor, partial curve, poor fit] |
| C=CCN1CCN(C(=O)CCC[C@@H]2[C@H]3CCCN4CCC[C@@H](CN2Cc2cccnc2)[C@@H]34)CC1 | inconclusive: 20 µM [inhibitor, partial curve, poor fit] |
| COc1cccc(NC(=O)C2CCN(S(=O)(=O)c3c(C)noc3C)CC2)c1 | inactive |
| COCC(=O)N1CC[C@H]2COC(=O)N2c2cc(F)ccc2C1 | inactive |
| CN(C)CCNC(=O)c1nc2c3c4c(sc3ncn2n1)CCCC4 | inconclusive: 2.51 µM [inhibitor, full curve, poor fit] |
| Cc1c(C(=O)Nc2ccc(C(F)(F)F)cc2)oc2ccccc12 | inconclusive: 39.8 µM [inhibitor, single point] |
| CC(=O)Nc1ccc(CN2CCC3(C2)NC(=O)c2ccccc2O3)cc1 (centres undefined) | inactive |
| O=C(Cc1cccc(F)c1)NC1CCN(c2cc(-c3cccs3)[nH]n2)C1 (centres undefined) | inconclusive: 15.8 µM [inhibitor, partial curve, poor fit] |
| CCOC(=O)CC(NC(=O)c1cc2c(=O)n3cccc(C)c3nc2s1)c1ccc(OCC)c(OC)c1 (centres undefined) | inconclusive: 3.55 µM [inhibitor, full curve, poor fit] |
| CCCCNc1nc(-c2ccc(N(CC)S(C)(=O)=O)cc2)cs1 | inconclusive: 25.1 µM [inhibitor, partial curve, poor fit] |
| O=c1[nH]cccc1-c1nc2cc(Cl)ccc2n1Cc1ccccc1 | inconclusive: 25.1 µM [inhibitor, partial curve, poor fit] |
| CCc1noc(-c2cccn3c(CNC(=O)c4ccccc4C)nnc23)n1 | active: 28.2 µM |
| CCc1ccccc1NC(=O)Cn1c(=O)n(-c2cccc(C)c2)c(=O)c2c1c1cc(OC)ccc1n2C | inconclusive: 28.2 µM [inhibitor, partial curve, poor fit] |
| O=C(Nc1ccc(-c2cnco2)cc1)c1ccccc1 | inconclusive: 28.2 µM [inhibitor, single point] |
| CCOc1ccccc1N(C)C(=O)c1cc2c(s1)-c1ccccc1OC2 | inconclusive: 25.1 µM [inhibitor, single point] |
